Reference: PMC4336329 (PLoS ONE, 2015)
Among all 310,000 compounds or so, about 14,000 (4.5%) showed an effect of 50% or more. The effect is printed as a negative number. The list shows a part of the results.

Biological target: human ether-à-go-go-related gene (hERG) potassium channel (human, UniProt Q12809)
Test: primary screen, population patch clamp on CHO cells stably expressing hERG
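Further: peak tail current of the secondary pulse compared with the same well before compound.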

Chain of human ether-à-go-go-related gene (hERG) potassium channel (Q12809 whole entry, looked up): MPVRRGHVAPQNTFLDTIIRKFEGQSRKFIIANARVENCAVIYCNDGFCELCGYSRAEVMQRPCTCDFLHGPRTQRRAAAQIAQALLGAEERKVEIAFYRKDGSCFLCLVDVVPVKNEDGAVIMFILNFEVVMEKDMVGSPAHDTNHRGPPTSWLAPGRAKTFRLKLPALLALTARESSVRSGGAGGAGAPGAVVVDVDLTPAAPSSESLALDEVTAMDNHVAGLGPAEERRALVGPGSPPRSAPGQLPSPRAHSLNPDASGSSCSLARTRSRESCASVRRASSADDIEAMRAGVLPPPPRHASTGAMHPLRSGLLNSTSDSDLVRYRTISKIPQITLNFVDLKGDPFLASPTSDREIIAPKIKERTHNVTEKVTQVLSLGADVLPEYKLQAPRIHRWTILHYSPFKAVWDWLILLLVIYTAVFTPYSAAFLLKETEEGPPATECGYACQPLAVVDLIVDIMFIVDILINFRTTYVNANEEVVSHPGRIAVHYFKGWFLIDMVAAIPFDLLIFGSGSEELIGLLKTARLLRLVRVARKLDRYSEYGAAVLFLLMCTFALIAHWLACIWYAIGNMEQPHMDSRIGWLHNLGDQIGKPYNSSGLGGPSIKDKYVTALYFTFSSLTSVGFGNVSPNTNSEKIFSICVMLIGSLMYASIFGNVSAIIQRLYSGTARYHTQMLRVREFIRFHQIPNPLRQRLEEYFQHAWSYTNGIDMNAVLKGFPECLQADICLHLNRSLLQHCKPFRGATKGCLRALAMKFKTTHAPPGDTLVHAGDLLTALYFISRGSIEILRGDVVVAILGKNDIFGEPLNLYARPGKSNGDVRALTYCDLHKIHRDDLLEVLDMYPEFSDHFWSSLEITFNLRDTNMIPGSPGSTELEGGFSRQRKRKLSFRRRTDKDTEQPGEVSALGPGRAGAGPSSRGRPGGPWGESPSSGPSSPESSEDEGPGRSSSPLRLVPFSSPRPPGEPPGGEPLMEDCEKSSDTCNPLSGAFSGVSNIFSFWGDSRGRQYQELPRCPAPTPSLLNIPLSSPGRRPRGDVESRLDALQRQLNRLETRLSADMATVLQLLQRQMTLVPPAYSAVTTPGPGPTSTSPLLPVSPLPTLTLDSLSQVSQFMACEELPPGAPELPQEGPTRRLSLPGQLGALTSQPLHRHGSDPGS

Row | SMILES | hERG current change (%, negative = inhibition) at 10uM
1 | COc1cc(OC)cc(C(=O)Nc2ccc([N+](=O)[O-])cn2)c1 | 12.5%
2 | COC(=O)c1cc(S(=O)(=O)NCCN2CCN(c3ccccc3F)CC2)c[nH]1 | 6.4%
3 | COc1ccccc1NC(=O)Nc1ccnn1Cc1cccs1 | -7.22%
4 | N/C(=N\O)c1ccc(Oc2ccccc2Cl)c([N+](=O)[O-])c1 | -9.72%
5 | CCOC(=O)CCCNS(=O)(=O)c1c(C)ccc2nsnc12 | -10.6%
6 | N#Cc1c(Cl)nc(-c2cccnc2)nc1-c1ccccc1 | 21.7%
7 | CCn1c2ccccc2c2cc(NC(=O)C(C)OC(=O)c3ccc(NC(=O)CC#N)cc3)ccc21 (stereo not shown) | 15.8%
8 | CC(=O)Oc1cc2c(C(=O)NCCN3CCOCC3)c(C)oc2c2ccccc12 | -24.7%
9 | O=c1c2ccccc2nc(-c2ccco2)n1CCCn1ccnc1 | -53.9%
10 | NC(=O)CCn1ccc2ccccc21 | 6.6%
11 | CCCCC(CC)C(=O)Nc1ccc(C)c(O)c1 (stereo not shown) | 37.3%
12 | Cc1ccn2c(NCc3ccc4c(c3)OCO4)c(-c3ccc(O)cc3)nc2c1 | -11.6%
13 | O=C(CCn1c(=S)oc2ccccc21)Nc1ccccc1F | 2.88%
14 | CN(CC(=O)Nc1ccc(Cl)c(C(F)(F)F)c1)C(=O)Cn1cc([N+](=O)[O-])ccc1=O | -46.2%
15 | CC(=O)Nc1ccc(S(=O)(=O)N(C)CC(=O)OCC(=O)NC(C)C23CC4CC(CC(C4)C2)C3)cc1.CN(C)C=O (stereo not shown) | 2.32%
16 | Cc1cc(-c2nnc(SCC(=O)N3C(C)CCCC3C)o2)no1 (stereo not shown) | 13.7%
17 | CC(C)(C)OC(=O)N1CCC[C@H]1C(=O)Nc1ccc(S(=O)(=O)C(F)F)cc1 | 6.56%
18 | O=C1CCc2cc(NS(=O)(=O)c3ccc(F)cc3)cc3c2N1CC3 | -21.2%
19 | Cc1cccc(C(=O)c2cnc3ccccc3c2-c2ccccc2)c1 | -0.792%
20 | O=C1NC(=O)N(Cc2cccs2)C(=O)/C1=C/c1ccc(N2CCOCC2)cc1 | 5.86%
21 | C1=C(c2ccccc2)CCN(c2nc3ccccc3n3cnnc23)C1 | -8.21%
22 | Cc1cccc2cc(CN(Cc3ccco3)C(=O)NC3CCCCC3)c(=O)[nH]c12 | -38.9%
23 | O=C(CN1C2CCC1CC(NC(=O)Nc1ccccc1)C2)NCc1ccco1 (stereo not shown) | -35.7%
24 | COc1cc(S(=O)(=O)n2ccnc2)ccc1Br | 3.28%
25 | COCCNC(=O)Cn1nc(C)c2ccccc2c1=O | 5.11%
26 | CCc1ccc([C@@H]2CC=C(C(=O)O)[C@H](c3ccccc3)N2S(=O)(=O)c2ccc(C)cc2)cc1 | 17.9%
27 | CC(SC1=Nc2ccccc2C2CC=NN12)C(=O)NC1(C#N)CCCCC1 (stereo not shown) | -19.8%
28 | NS(=O)(=O)c1ccc(CCNC(=O)c2ccc(C#CC3(O)CCCCC3)cc2)cc1 | 5.8%

Row | SMILES | hERG current change (%, negative = inhibition) at 10uM
29 | O=C(Cn1cc(S(=O)(=O)N2CCN(c3ccccc3F)CC2)c2ccccc2c1=O)NCCCN1CCCCCC1 | -61.1%
30 | CC(C)(C)OC(=O)CNC(=O)c1[nH]cnc1C(=O)NCC(=O)OCc1ccccc1 | -13.2%
31 | CCOc1ccccc1NC(=O)C(NCC1(N2CCCCC2)CCCCC1)c1ccccc1.O=C(O)C(=O)O (stereo not shown) | -70.9%
32 | O=C(NC1(C(F)(F)F)Oc2ccccc2O1)N1CCC2(CC1)OCCO2 | -11.6%
33 | CC(C)OC(=O)CSc1n[nH]c(-c2cccnc2)n1 | 19.1%
34 | COc1ccc(C(=O)NCCS(=O)(=O)N2CCc3ccccc3C2)c(OC)c1 | -26.7%
35 | Cc1ccc(S(=O)(=O)N2CCOCC2)cc1C(=O)N(C)CCOc1ccc(Cl)cc1 | -64%
36 | ClC(Cl)(c1nnnn1-c1ccccc1)c1nnnn1-c1ccccc1 | -4.27%
37 | CCC(C)NC(=O)Cn1cc2c(n1)CCC(C)C2 (stereo not shown) | 13.8%
38 | O=C(NC(=S)Nc1ccc(Cl)cc1)c1ccccc1 | 21.3%
39 | CN1CCN(c2nc(Nc3ccc(O)cc3)nc3ccccc23)CC1.Cl | -34.9%
40 | O=C(Nc1cc(-c2ccccc2)nn1-c1ccccc1)c1ccccc1F | -25.4%
41 | COC(=O)c1c(=O)n(O)c2ccc(OC)cc2[n+]1[O-] | 8.73%
42 | COc1ccc(N2CCN(c3ccc(C(N)=O)cc3[N+](=O)[O-])CC2)cc1 | 2.51%
43 | Cc1cc(C)cc(OCCNC(=O)CCc2ccccc2)c1 | 4.83%
44 | O=C(CCN1C(=O)c2ccccc2S1(=O)=O)Nc1ccc(Cl)cc1 | 22.9%
45 | CCOc1ccc(CN2CCN(CCCc3ccccc3)C(CCO)C2)cc1 (stereo not shown) | -75.5%
46 | COC(=O)c1c(NC(=S)NN2CCN(C)CC2)sc2c1CCC(C)C2 (stereo not shown) | 43.7%
47 | COc1ccc(-c2c(C(C)=O)c(C)nc3sc4c(=O)[nH]nnc4c23)cc1 | 8.95%
48 | Cc1ccccc1CSc1nnc(-c2ccccc2)c(=O)[nH]1 | 18.9%
49 | CC(C)CCCCCCNC(=S)Nc1ccc(S(=O)(=O)N2CCOCC2)cc1 | 0.149%
50 | O=C(CN1C(=O)c2ccccc2C1=O)Nc1nc(-c2cccc([N+](=O)[O-])c2)cs1 | -0.66%
51 | Nc1nnc(SCC(=O)Nc2ccc(Cl)c(C(=O)O)c2)s1 | 19.8%
52 | Cc1nc(NC(=O)CSc2ccc(-c3nc4ccccc4[nH]3)cn2)sc1C | 6.22%
53 | O=C(Nc1ccccc1)Nc1cccn(Cc2c(F)cccc2Cl)c1=O | 12.5%
54 | COCCn1c(=O)[nH]c2cc(C(=O)NCC3CCCO3)ccc2c1=O (stereo not shown) | -7.76%
55 | Cc1ccc(NC(=O)C(C)N=C2NS(=O)(=O)c3ccccc32)cc1F (stereo not shown) | 18.8%
